Assay results published in the supplement of paper PMC10126150.
Sequences with one replicate were seen in a single cluster, so their values are uncertain.

Tested on: ATP
Assay: switch fluorescence ratio, 500 uM ATP over buffer (Cy3 cluster intensity, sum of 5 cycles each) (fold (ratio)); higher = stronger signal-on switching upon ATP binding; sequences stand for … in TCGTCGGCAGCGTCAGATGTGTATAAGAGACAGTTTTTTTTTTTTTTTTTTTTTTTTT…TC
Settings: aptamer strand: ATP DNA aptamer (quencher-CACCTGGGGGAGTATTGCGGAGGAAGG + anchor), 100 nM annealed; ATP concentration: 500 uM; one replicate
Method in brief: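 For every switch-domain sequence, the fluorescence ratio is the mean of per-cluster values, each being summed target-cycle Cy3 intensity over summed buffer-cycle Cy3 intensity. Clusters outside 100-1000 RFU were excluded. On a modified Illumina MiSeq flow-cell, the Cy3-labelled switching-strand clusters were annealed to 100 nM quencher-labelled ATP aptamer, imaged in selection buffer and then after 15 min with 500 uM ATP at 22 °C. Five such cycles were run, with NaOH stripping and re-annealing between them.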
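Also: ATP exposure 15 min at 22 °C before imaging.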

Row | Sequence | switch fluorescence ratio
1 | CGGGTCCTAT | 0.975
2 | TTTCTCCTGC | 1.23
3 | GATACAGTGG | 1
4 | CATTAGGAAC | 1.03
5 | CTGAGGCTC | 1.11
6 | TCTCATGGC | 0.976
7 | CCTATCCAC | 1.12
8 | TTCTTCTTCG | 1.1
9 | CGCCTTATGT | 0.919
10 | CACAACTGGG | 1.05
11 | ATAACCTTC | 2.72
12 | GATCTTGGTT | 1.04
13 | AACGTGTTAA | 0.994
14 | GCCATGAAAC | 1.03
15 | AGTTGTTGAG | 0.985
16 | CGCGAGACCC | 2.94
17 | CCCCCCCGGT | 1.28
18 | TTGAAATTAT | 1.03
19 | AAGCGGATG | 1
20 | CCGCGGGTC | 2.59
21 | CCGGCCGGC | 1.02
22 | GGGAGCATTT | 0.994
23 | GAGTAAGGAG | 0.98

Row | Sequence | switch fluorescence ratio
24 | AGTTGCTATT | 0.99
25 | ACCTGGGGTC | 1.05
26 | TTGTCTATCT | 0.963
27 | CATCTCTGGG | 1.01
28 | TATCCAGAAT | 1.07
29 | GTTAATGGAC | 0.993
30 | GCCTTGAAAT | 1.05
31 | ATTGTAGCTC | 1.06
32 | TCTTCTCTAC | 1.12
33 | ATTAATTGCT | 0.988
34 | ACAAGGCACT | 1.03
35 | ATGGGGTGCC | 1.01
36 | CTCTGGCGGG | 0.984
37 | AGCAATTTGG | 1.17
38 | TACAATCGC | 1.02
39 | CTAGCTGGAA | 1.01
40 | AAGCGTTAGA | 1.04
41 | GGCCAAGCGC | 0.984
42 | ACTGGCAGAA | 1.02
43 | AATGTGTT | 0.97
44 | AAATCCTCAA | 1.1
45 | AATTTGAATG | 0.995
46 | GCGGTAATGG | 1.03

Row | Sequence | switch fluorescence ratio
47 | TGGTCTGTGC | 0.965
48 | CAATTTTTGT | 1.02
49 | ATCTGATCGT | 0.978
50 | TCCTGAGATA | 1.04
51 | CACGTCGGT | 0.982
52 | ATTCCGCCGT | 1.14
53 | TATAAGGATA | 0.991
54 | TTGAGCCGGG | 1
55 | AGAGGCCATG | 0.979
56 | ACATTGGGTA | 0.935
57 | TGCCATGTGA | 1.01
58 | ACCTGATGTT | 0.986
59 | CTGTTACGGA | 0.985
60 | GCGATTTTGT | 1.01
61 | CGATTCAATA | 1.67
62 | GGCTTAAATT | 0.988
63 | AGCAGCCGTG | 1.02
64 | CATTGAAATG | 1.04
65 | TATCAAGGTA | 0.973
66 | GATCGTCTAC | 1.02
67 | ACGCCATGTC | 1.23
68 | GGCTAAGGAC | 1.03
69 | TACTGGCTAT | 1.01

Row | Sequence | switch fluorescence ratio
70 | CAAAGCAAGC | 3.84
71 | AACGATGTGC | 1.12
72 | TAGAAGACTC | 1.06
73 | TCAATATGCC | 1.03
74 | AACTATCAAC | 0.99
75 | CATTGAGGGA | 1
76 | CTCAAGCAGT | 2.6
77 | AAACTAATGA | 1.01
78 | TAAAGACAGG | 0.977
79 | TGTTGGATTA | 1.12
80 | CTGCGCGAGG | 1.27
81 | CAATGTACAT | 0.963
82 | GCTGCGTT | 0.984
83 | GCATGTTACG | 1.04
84 | GCGCTATCCG | 0.961
85 | TTGGTCTCCT | 1.02
86 | AACACGTCGG | 1.01
87 | CCATTAACAG | 1.01
88 | TCATGTGTTA | 0.988
89 | ATCCATGTAA | 1.01
90 | ATAATTAAAA | 0.987
91 | CCTCTTGGA | 1.04
92 | ATCCGCTGAC | 3.83

Row | Sequence | switch fluorescence ratio
93 | AAGTAGAAGG | 0.985
94 | AGTAGGGCCT | 0.992
95 | TATGTTAGAA | 1.02
96 | CAGACGCGGC | 1.07
97 | ATAAGGCTGT | 1.04
98 | TTAACAGGTA | 0.957
99 | AAGTTAACCT | 1.38
100 | TACGGCCGTT | 0.983
101 | AAATGATGCG | 1.04
102 | TGAAAAAACC | 1.13
103 | AATCTGTTTT | 0.995
104 | CATTTGGACT | 1.02
105 | ATGACCCACG | 1.14
106 | ATACACGTTT | 0.97
107 | CCTCGATCAG | 1.04
108 | TCTACTCTTT | 0.966
109 | GAATGAGGAT | 1.01
110 | ACCGGCTTAA | 1.02
111 | TTTTCGGAAT | 1.06
112 | ACGGTATGTC | 1.12
113 | GGTCGAACGC | 1
114 | GGCGGAAAGG | 1.02
115 | CGCCCCATCT | 1.02

Row | Sequence | switch fluorescence ratio
116 | CGCCCATGGG | 1.03
117 | CATGACGAGA | 0.998
118 | ACTAGATGGC | 1.03
119 | GACCATATCG | 1.02
120 | GCTGGGGATC | 0.983
121 | CCTGTTATGT | 1.01
122 | CTTCTAGAAA | 1.03
123 | GTTCCAGATT | 1.02
124 | ACAGACGGTA | 1.22
125 | TTGCACACC | 1.08
126 | TAGTTGTGAT | 0.955
127 | CCAGGTCTGT | 1.16
128 | GGTGGATAGA | 1.03
129 | TTGGTGCTCT | 1.02
130 | CCTCGGTGAA | 1.75
131 | AGAGATTCTA | 1.02
132 | TCCGGAGACA | 3.2
133 | TCGAAGGTGG | 0.998
134 | CAGTCTGTCG | 0.97
135 | CCTTTCAGGG | 1
136 | AAACCTGGTT | 1.05
137 | CTAGCGGGCG | 1.01
138 | AAGCGTACTG | 1.06

Row | Sequence | switch fluorescence ratio
139 | CGCAGTGGAA | 1.03
140 | AAGACCGTTT | 0.955
141 | AAAGCCATGT | 1
142 | ATTGAAATGC | 1.1
143 | CTGCAAATG | 1.35
144 | TGCACAGGAG | 1.22
145 | GGCCCTAGTG | 1.08
146 | CGTAGGGACT | 0.994
147 | TACGCCTAAT | 1.04
148 | ATGTTTCACT | 0.959
149 | AGGTTGCTGG | 0.967
150 | CACATGTAGT | 0.983
151 | CTTTTAGCGC | 1.01
152 | CATAGAGCT | 0.972
153 | ATTAGCGTGC | 0.96
154 | GGCAGTACGC | 1.17
155 | ATATTATCTG | 1.02
156 | GACACGCTTA | 1.06
157 | GTTATATATT | 0.98
